Among the data in the RNAGym collection of RNA variant scans (doi:10.1101/gad.245936.114) are nonsense suppression values, retold here.

Variants at the floor of the assay are shown more often than the library holds them.

Sequences and labels used below:
B1: tRNA (parent)
chain: CUCUCGGUAGCCAAGUUGGUUUAAGGCGCAAGACUUUAAUUUAUCACUACGAAAUCUUGAGAUCGGGCGUUCGACUCGCCCCCGGGAGAUUUUUUCCUCGAGCAA

This data set covers variants of B1. The data set can be described thus: nonsense suppression (GFP-seq) (ratio to wild type); higher = more function; SUP4oc tRNA, yeast GFP reporter sort-seq. The method, boiled down: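 Yeast carrying genome-integrated SUP4oc tRNA variants from a library with ~3% random mutations were grown in raffinose/galactose medium with 80 mg/L adenine. Each strain also carried a galactose-driven GFP ochre reporter and RFP. Cells were sorted into GFP/RFP bins, and each bin was Illumina-sequenced (phred ≥30). Nonsense suppression (GFPSEQ) is the bin median GFP/RFP, weighted by each variant's estimated cell share per bin, relative to wild-type SUP4oc; variants needed ≥100 reads and ≥30 cells.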
As for CUCUCGGUAGCCAAGUUGGUUUAAGGCGCAACACUUUAAUUUAUCACUACGAAAUCUUGAGAUCGGGCGUUCGACACGCCCCCGCGAGAUUUUUUCCUCGAGCAA [G32C U76A G85C], the nonsense suppression is at most 0.026.

Regarding CUCUCGGUAUCCAAGUUGGUCUAAGGCGCAAGACUUUAAUUUAUCACUACGAAAUCUUGAGAUCGGGCGUUCGAGUCGCCCCCGGGAGAUUUUUUCCUCGAGCAA [G10U U21C C75G], the nonsense suppression is at most 0.026.

As to CUCUCGGUAGCCAAGUUGGUUUAAGGCGCAAGACUUUAAUUUAUCACUACGAAAGCUUGAGAUCGGGCGUUCGACUGGCCCCCGGGGGAUUUUUUCCUCGAGCAA [U55G C77G A87G], the nonsense suppression is at most 0.026.

On to CUCACGGUAGCCAAGUUGGUUUAAGGCGCGAGACUUUAAUUUAUCACUACGAAAUCUUGAGAUCGGGCGUUCGACUCGCCCCCGGGAGAUUUUUUCCUCGAGCAA [U4A A30G], for which the nonsense suppression turned out to be 0.0267.

With CUCUCGGUAGCCAAGUUGGUUUAAGGCGCAAGAUUUUAAUUUAUCACUACGAAAUCUUGAGAUCGGCCGUUCGACUCGCACCCGGGAGAUUUUUUCCUCGAGCAA [C34U G67C C80A], the nonsense suppression was at most 0.026.

With CUCUCGGUAGCCAAGUUGGUUUAAGGCGCAAGACUUUAAUUUAUCACUACGAAAUCUUCAGAUCUGGCGUUCGACUCGCCCCCGGGAGAUUUUUUCCUCGAGCAA [G59C G65U], the nonsense suppression is at most 0.026.

Regarding CUCUCAGUAGCCAAGGUGGUUUAAGGCGCAAGACUUUAAUUUAUCACUACGAAAUCUUGAGAUCGGUCGUUCGACUCGCCCCCGGGAGAUUUUUUCCUCGAGCAA [G6A U16G G67U], the nonsense suppression was at most 0.026.

On to CUCUCGGUAGCCAAGUUGGUUUAAGGCGCAAGACUUUAAUUUAUCACUACGAAACCUCAAGAUCGGGCGUUCGACUCGCCCCCGGGAGAUUUUUUCCUCGAGCAA [U55C U58C G59A], for which the nonsense suppression was at most 0.026.

As for CUCUCGGUGGCCAAGUUGGUUUAAGGCGCAAGACUUUAAUUUAUCACUACGAAAUCUUGAGGUCGGGCGUUCUACUCGCCCCCGGGAGAUUUUUUCCUCGAGCAA [A9G A62G G73U], the nonsense suppression is at most 0.026.

For CUCUCGGUAGCCAAGUUGGUUUAAGGCGCAUGACUUUAAUUUAUCACUACGAAAUCUUGAGAUCGCGCGUUCGACUCCCCCCCGGGAGAUUUUUUCCUCGAGCAA [A31U G66C G78C], the nonsense suppression is at most 0.026.

For the variant CGCUCGGUAGCCAAGUUGGUUUAAGGCGCAAGACUUUAAUUUAUCACUACGAAGUCUUGAGCUCGGGCGUUCGACUCGCCCCCGAGAGGUUUUUUCCUCGAGCAA [U2G A54G A62C G85A A89G], the nonsense suppression is at most 0.026.

Take CUCUCGGUAGCCACGUUGGUUUAAGGCGCAAGGCUUUAAUUUAUCACUACGAAAUCUUUCGAUCGGGCGUUCGACUCGCCCCCGGGAGAUUUUUUCCUCGAGCAA [A14C A33G G59U A60C]: the nonsense suppression was at most 0.026.

Regarding CUCUCGGUAGCCACGUUGCUUUAAGGCGCUAGACUUUAAUUUAUCACUACGAAAUCUUGAGAUCGGGCGGUCGACUCGCCCCCGGGAGAUUUUUUCCUCGAGCAA [A14C G19C A30U U70G], the nonsense suppression is at most 0.026.

Take CUCUCGGUCCCCAAGUUGGUUUAAGGCGCAAGACUUUAAUUUAUCACUACGAAAUCUUGAGCUCGGGCGUUCGACUCGCACCCGGGAGAUUUUUUCCUCGAGCAA [A9C G10C A62C C80A]: the nonsense suppression is at most 0.026.

As for CUCUCGGUAGCCAAGUUGGUUUAAGGCGCAGGAUUUUAAUUUAUCACUACGAAAUCUUGAGAUCGGGCUUUCGACUCGCCCCCGGGAGAUUUUUUCCUCGAGCAA [A31G C34U G69U], the nonsense suppression is at most 0.026.

As to CUCUCUGUAGUCAAGUUGGUUUAAGGCGCAAGACUUUAAUUUAUCACUACGAAAUCUUAAGAUCGGGCGUUCGACUCGCCCCCGGGAGAUUUUUUCCUCGAGCAA [G6U C11U G59A], the nonsense suppression was at most 0.026.

As for CUCUCGGUAGCCAAGUUGGUUGAAGGCGCAAGACUUUAAUUUAUCACUACGAAAUCUUGAGAUCGGGCGUUCGACUCGCCCCCAGGCGAUUUUUUCCUCGAGCAA [U22G G84A A87C], the nonsense suppression is at most 0.026.

Regarding CUCUCAGUAGACAAGUUGGUUUAAGGCGCAAGACUUUAAUUUAUCACUACGAAAGCUUGAGAUCGGGCGUUCGAAUCGCCCCCGGGAGAUUUUUUCCUCGAGCAA [G6A C11A U55G C75A], the nonsense suppression is at most 0.026.

For CUCUCGGUAGUCAAGUUGGUUUAAGGCGCAAGACUUUAAUUUAUCACUACGAAAUUUUGAGAUCCGGCGUUCGACUCGCCCCCGGGAGAUUUUUUCCUCGAGCAA [C11U C56U G65C], the nonsense suppression was at most 0.026.

Consider CUCUCGGUAGCCAAGUUGGUUUAAGGCGCAAGAGUUUAAUUUAUCACUACGAAAUCUUGAGAUCGGGCGAUCGACUCUCCCCCGGGAGAUUUUUUCCUCGAGCAA [C34G U70A G78U], for which the nonsense suppression is at most 0.026.

Turning to CUCUCGGUAGCCAAGUUGGUUUAAGGCGCAAGACUUUAAUUUAUCACUACGAAAUCUCGAGAUCUGGCGUUCGACUCGCCCCCGGGAGAUUUUUUCCUCGAGCAA [U58C G65U], the nonsense suppression was at most 0.026.

Consider CUCUCGGUAGCCAAGUUGGUUUAAGGAGCAAGACUUUAAUUUAUCACUACGAAAUCUUGAGAUCGGGCGUUCGACUCGCCCCCGCGAGAUUUUUUCCUCGAGCAA [C27A G85C], for which the nonsense suppression was at most 0.026.

Consider CUCUCGGUAGGCAAGUUGGUUUAAGGCCAAAGACCUUAAUUUAUCACUACGAAAUCUUGAGAUCGGGCGUUCGACUCGCCCCCGGGAGAUUUUUUCCUCGAGCAA [C11G G28C C29A U35C], for which the nonsense suppression was at most 0.026.

In the case of GUCUCGGUAGCCAAGUUUGUUUAAGGCGAAAGACUUUAAUUUAUCACUACGAAAUCUUGAGAUCGGGCGUUCGACUCGCCCCCGGGAGAUUUUUUCCUCGAGCAA [C1G G18U C29A], the nonsense suppression was at most 0.026.

Turning to CUCUCGAUAGCCAAGUUGGUUUAAGGCGCUAGACUUUAAUUUAUCACUACGAAAUCUUGAGAUCGGGCGUUCGACUCGCCCCCGGGAGAUUUUUUCCUCGAGCAA [G7A A30U], the nonsense suppression was determined as 0.0309.

As to CUCUCGGUAGCCAAGUUGGUUGAAGGCGCAAGAGUUUAAUUUAUCACUACGAAAUCUUGAGAUCGGGCGUUCGACUCGCCCCCGGGAGAUUUUUUCCUCGAGCAA [U22G C34G], the nonsense suppression was at most 0.026.

In the case of CUCUCGGUAGCCAAGUUGGUUUAUGGCGCAAGACUUUAAUUUAUCACUACGAAGUCUUGAGUUCGGGCGUUCGACUCGCCCCCGGGAGAUUUUUUCCUCGAGCAA [A24U A54G A62U], the nonsense suppression was at most 0.026.
